Test results taken from the antibiotic and cytotoxicity screens of Wong et al. (2023).
The list shows a part of the results.

Each compound was assayed on HepG2 (assay: cytotoxicity call (relative viability < 0.9)). Conditions: 10 µM.

SMILES	cytotoxicity call
COc1ccc(S(=O)(=O)N(C)C[C@@H]2Oc3ccc(NS(=O)(=O)c4c(C)noc4C)cc3CC(=O)N([C@@H](C)CO)C[C@@H]2C)cc1	inactive
CN(C)CCCNC(=O)[C@H]1[C@H](CO)[C@H]2Cn3c(ccc(-c4cccc(C(=O)N(C)C)c4)c3=O)[C@@H]1N2	inactive
C[C@@H]1CN([C@@H](C)CO)C(=O)Cc2cc(NC(=O)Nc3cccc4ccccc34)ccc2O[C@H]1CN(C)S(=O)(=O)c1ccc(Cl)cc1	inactive
CN(C)CCCNC(=O)C[C@@H]1C=C[C@H](NC(=O)Cc2cccnc2)[C@H](CO)O1	inactive
C[C@@H]1CCCCO[C@H](CN(C)C(=O)Nc2ccc(C(F)(F)F)cc2)[C@@H](C)CN([C@@H](C)CO)C(=O)c2cc(NC(=O)Nc3cccc4ccccc34)ccc2O1	inactive
Cn1cnc2c1[C@H](C(=O)N1CCN(c3ccccc3)CC1)N(S(C)(=O)=O)CC2	inactive
CCCNC(=O)N(C)C[C@H]1Oc2cc(-c3ccc(C)cc3)ccc2S(=O)(=O)N([C@H](C)CO)C[C@H]1C	inactive
COc1ccc(CN(C)C[C@H]2OCCCC[C@H](C)Oc3ccc(NC(=O)Nc4ccc5c(c4)OCO5)cc3C(=O)N([C@@H](C)CO)C[C@@H]2C)cc1	active
C[C@H](CO)N1C[C@H](C)[C@@H](CN(C)C(=O)Nc2ccc(C(F)(F)F)cc2)Oc2ccc(NC(=O)Cc3ccccc3)cc2CC1=O	inactive
CO[C@@H](C(=O)N(C)C[C@@H]1OCc2ccccc2-c2c(n(C)c3ccccc23)C(=O)N([C@H](C)CO)C[C@H]1C)c1ccccc1	inactive
O=C(C[C@H]1C=C[C@@H](NC(=O)CN2CCOCC2)[C@H](CO)O1)NC1CCCCC1	inactive
CCN1CCN(C(=O)NC(C(=O)NC2C(=O)N3C(C(=O)O)=C(CSc4nnnn4C)CSC23)c2ccc(O)cc2)C(=O)C1=O (configuration not stated)	inactive
